Laboratory results: PubChem BioAssay AID493208 (National Center for Advancing Translational Sciences (NCATS), 2011)
Among all 44,000 compounds or so, about 340 (0.77%) were called active. Another 5% or so got no clear call; they are omitted. Calls come from the whole dose curve; as a rule, active = well fitted inhibition curve with a large enough effect; inconclusive = small, poorly fitted or top-dose-only effect; inactive = flat fitted curve, though single readings scatter. Some of the results follow.

Assay: Acumen qHTS Assay for Inhibitors of the mTORC1 Signaling Pathway in MEF (Tsc2-/-, p53-/-) Cells: Sytravon;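 note: plate controls were DMSO for no effect and rapamycin for full effect; nearly all actives have a fitted effect of over 50% in size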
Conditions: phospho-rpS6 immunofluorescence/PI, 24 h; series mostly up to 38.3 µM; activity change, negative = inhibition: at the top concentration
In short: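 Readout is phospho-S6 Alexa 488 signal normalized to PI per well, reported as % active cells with thresholds set from rapamycin (7.5 nM) and DMSO controls. Cells: Tsc2-/-, p53-/- MEFs, 24 hrs compound at 37 C; PI cell number serves as viability.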

Activity change, negative = inhibition, inactive:
COCCSc1nc2c([nH]c3ccccc32)c(=O)n1-c1ccc(OC)c(OC)c1 -15.5%
CC1CCCCN1Cc1c(O)ccc2c(=O)c(-c3ccccc3Cl)c(C(F)(F)F)oc12 (configuration not stated) -14.4%
Cc1ccc(C2CC(=O)Nc3cc4c(cc32)OCCO4)cc1Br (configuration not stated) -6.05%
CCOc1ccc(CCNC(=O)c2cc(=O)[nH]c3ccc(S(=O)(=O)N4CCCCC4C)cc23)cc1OCC (configuration not stated) 6.43%
Fc1ccccc1-c1nc(N2CCN(c3cccc(Cl)c3)CC2)c2ccccc2n1 -8.11%
COCCNC(=O)Cn1ccc2cc(S(=O)(=O)N3CCCCCC3)ccc21 0.0831%
Cc1ccc(-c2noc(CCC(=O)N(C)c3ccccc3F)n2)cc1 -10%
CCn1c(=O)c2c(nc3n2CCN3c2ccc(OC)cc2)n(C)c1=O -4.41%
COc1ccc(CNC(=O)CCc2c(C)nc3c(c(C)nn3-c3ccccc3)c2C)cc1 -2.71%
CCOC(=O)c1c(C)n(-c2ccc(OC)cc2)c2ccc(OC(=O)COc3ccccc3)cc12 -6.98%
Cc1ccc(-n2ncc3c(Nc4cccc(Cl)c4)ncnc32)c(C)c1 -0.318%
O=C(Cn1nnnc1-c1ccccc1F)Nc1ccc(OC(F)(F)F)cc1 -1.73%
CCc1ccc(CNC(=O)CCc2c(C)nn(-c3ccc(N4CCCC4)nn3)c2C)cc1 -0.372%
COc1cc(NC(=O)C2=CC(c3ccc(F)cc3)=NS(=O)(=O)N2C)cc(OC)c1OC 0.626%
CC(C)c1nnc(N2C(=O)c3oc4ccccc4c(=O)c3C2c2ccccc2F)s1 (configuration not stated) 1.03%
CCN(Cc1ccccc1)C(=O)C1CCN(S(=O)(=O)c2ccc3c(c2)CCCN3C(C)=O)CC1 -2.98%
O=C(CSc1nccn1Cc1ccc(F)cc1)Nc1nc2ccccc2s1 -0.904%
Cc1cccc(CC(=O)N2CC(=O)Nc3ccc(Br)cc3C2c2ccc(F)cc2)c1 (configuration not stated) 5.04%
CCc1cccc(-n2nnc(-c3nsc(NC(=O)c4cccc(OC)c4)n3)c2C)c1 -4.5%
O=C(Cn1ncc2c3ccccc3n(Cc3ccccc3F)c2c1=O)NCc1ccccc1Cl -5.35%
Cc1cc2c(cc1S(=O)(=O)Nc1cccc(C#N)c1)OCC(=O)N2 -4.22%
N#Cc1ccc(-c2cccs2)nc1SCc1ccc(Br)cc1 3.97%
COc1ccc(-n2nc(C(=O)N3CCCCC3C)c3c4ccccc4n(C)c3c2=O)cc1Cl (configuration not stated) 4.47%
Cc1coc2c(C)c3oc(=O)c(CCC(=O)NCCc4ccccc4F)c(C)c3cc12 2.45%
CCOC(=O)c1ccc(NC(=O)Cn2c(=O)cc(C)c3c(C)nn(-c4ccc(CC)cc4)c32)cc1 -10.2%
COc1cccc(C(=O)Nc2ccccc2C(=O)OCc2cc(=O)n3c4c(sc3n2)CCCC4)c1 0%
COc1ccc(CNC(=O)CN(C)S(=O)(=O)c2ccc3nc(C)sc3c2)cc1 -2.3%
COc1cccc(/C=C/c2nc(C#N)c(N3CCC(C(N)=O)CC3)o2)c1 -1.18%
COc1ccc(Br)cc1S(=O)(=O)Nc1cc(-c2cn3ccccc3n2)ccc1C -2.57%
Cc1ccc(C2C=C(c3ccccc3)Nc3nc(NS(=O)(=O)c4ccccc4)nn32)cc1 (configuration not stated) 1.05%
CCOc1ccc(CCNC(=O)c2cn(-c3ccc(OC)cc3)c(=O)c3ccccc23)cc1OCC 10.4%
CN(Cc1ccccc1)C(=O)c1ccc(CSc2nc3cccnc3n2Cc2ccccc2F)cc1 0.881%
COc1ccc(NC(=O)Cn2c(=O)n(CCC(=O)NCC3CCCO3)c(=O)c3cc(OC)c(OC)cc32)cc1 (configuration not stated) 2.17%
COc1ccccc1Nc1sc(C(=O)c2ccc(F)cc2)c(N)c1S(=O)(=O)c1ccc(C)cc1 0.67%
COc1ccc(-c2noc(-c3ccc(N4CCCC4)c([N+](=O)[O-])c3)n2)cc1OC 0.462%
CCc1ccc(-n2nc(C)c3c(C(=O)N4CCN(c5ccccc5)CC4)cc(C)nc32)cc1 -5.27%
CCOc1ccc(CNC(=O)C2CCCN(c3nnc(C)c4c(C)n(-c5ccccc5)nc34)C2)cc1 (configuration not stated) 1.81%
CCOc1cc(C2NC(=O)c3c(sc4c3CCN(C)C4)N2)ccc1OC(=O)c1ccc(Br)cc1 (configuration not stated) 5.17%
Cc1nn2c(C)c(C(=O)NC(C)c3ccccc3)cnc2c1-c1ccc(F)cc1 (configuration not stated) -1.6%
COc1ccc(NC(=O)c2ccco2)cc1NC(=O)C(C)(C)Oc1ccc(Cl)cc1 3.53%
CCOc1ccc(NC(=O)Cn2cnc3sc(C)c(S(=O)(=O)N4CCN(c5ccccc5OC)CC4)c3c2=O)cc1 9.05%
COc1ccc(C)cc1NC(=O)c1cc2c(=O)n3cccc(C)c3nc2s1 0.567%
CCC(=O)N1CCCc2cc(S(=O)(=O)N3CCC(C(=O)NCc4ccc(F)cc4)CC3)ccc21 -0.694%
Cc1cccc(C)c1-n1ncc(C(=O)O)c1C1CCN(C(=O)OC(C)(C)C)CC1 0.421%
COc1ccc(Cl)cc1NC(=O)c1cn(C2CCCC2)c(=O)c2c1c1ccccc1n2C -9.64%
Cc1cccc(N(CC(=O)Nc2ccccc2C(F)(F)F)S(=O)(=O)c2ccccc2)c1C -23.7%
COc1ccc(OC)c(C2CC(=O)Oc3c2c(=O)n(C)c2ccccc32)c1 (configuration not stated) -3.46%
O=C(NCC(c1cccs1)S(=O)(=O)c1ccccc1)c1ccc(C(F)(F)F)cc1 (configuration not stated) -2.82%
O=C(Nc1ccc(F)cc1)c1ccc2c(=O)n3c(nc2c1)CCCCC3 -0.431%
COCCCNC(=O)CSc1nc2c(sc3ccccc32)c(=O)n1CCc1ccc(OC)c(OC)c1 -5.81%
CN(C)CCNC(=O)Cn1ccc2cc(S(=O)(=O)N3CCCCCC3)ccc21 3.62%
Cc1cccc(Cn2c(-c3cccc(Br)c3)nc3ccccc32)c1 -0.661%
CCOc1ccccc1NC(=O)CCc1c(C)nn(-c2ccc(N3CCCCC3)nn2)c1C -12%
COc1ccccc1C(=O)NC1(C(F)(F)F)C(=O)Nc2c1c(=O)[nH]c(=O)n2-c1ccc(F)cc1 (configuration not stated) 0.22%
Cc1cc(Cl)ccc1OCC(=O)N(Cc1ccco1)Cc1ccccc1F -0.281%
COc1ccc(CNC(=O)CSc2ncc3c(n2)-c2ccc(Cl)cc2N(Cc2ccccc2)S3(=O)=O)cc1 -18.6%
Cc1cc(C)cc(NS(=O)(=O)c2ccc3[nH]cc(C(=O)NCc4ccccc4Cl)c(=O)c3c2)c1 -0.598%
O=C(CSc1nnc(-c2ccc([N+](=O)[O-])cc2)o1)Nc1ccccc1 -0.951%
COc1cc(NC(=O)Cn2c(=O)n(Cc3ccco3)c(=O)c3oc4ccccc4c32)cc(OC)c1 -11.1%
Cc1ccc(-c2nc(Cn3c(=O)cc(-c4ccccc4)c4c(C)nn(C)c43)c(C)o2)cc1 -9.45%
Cc1ccc(OCCn2nnc3sc4c(c3c2=O)CCC(C)C4)cc1 (configuration not stated) -2.96%
CCOc1ccc(C(=O)N2CCC(c3noc(-c4ccc(S(=O)(=O)N5CCCC5)cc4)n3)CC2)cc1 -3.38%
CN(C1CCCCC1)S(=O)(=O)c1ccc2c(c1)c(=O)c(C(=O)N1CCN(c3ccccc3F)CC1)cn2C 0.113%
CCc1c(-c2ccccc2)nc2ccccc2c1C(=O)NCc1ccc(C)cc1 12.4%
Cn1cnc(S(=O)(=O)N2CCC(C(=O)N3CCN(c4ccccc4F)CC3)CC2)c1 9.1%
CSc1cccc(NS(=O)(=O)c2cn(C)c(C)n2)c1 -0.264%
CCOc1ccc2c(c1)NC(c1cccs1)=NC(c1ccc(F)cc1)=N2 2.87%
COc1ccc(N2CCN(c3nc4ccc(C)cc4n4nnnc34)CC2)cc1 1.07%
O=C(Nc1ccc(Br)cc1F)N1CCC2(CC1)Oc1ccccc1C(=O)N2Cc1ccccc1F 0.0884%
CCN(c1ccccc1)c1nnc(NC(=O)Nc2ccc(Br)cc2F)s1 -14.3%
O=C1CSC2(C(=O)N(Cc3ccccc3)c3ccccc32)N1c1ccc(Cl)cc1 (configuration not stated) -1.59%
COc1ccc(C2C(C(=O)Nc3ccc(C)cc3C)=C(C)Nc3nc4ccccc4n32)c(OC)c1 (configuration not stated) -3.33%
COc1ccc2occ(CC(=O)Nc3ccc(S(=O)(=O)Nc4nc(C)cc(C)n4)cc3)c2c1 -6.25%
COC(=O)c1cc(NC(=O)Cn2nc(-c3ccc(C)c(C)c3)ccc2=O)cc(C(=O)OC)c1 -13.7%
CCC(C)NC(=O)C1=CC(c2ccc3c(c2)OCO3)=NS(=O)(=O)N1C (configuration not stated) 1.98%
O=C(CN1C(=O)COc2ccc(S(=O)(=O)Nc3ccccc3)cc21)Nc1cccc(Cl)c1 0%
COc1cccc2c1Oc1ncccc1N(C(=O)CCC(=O)NCc1ccccc1Cl)C2 1.12%
COc1ccc2c(c1)cc1c(=O)n(CC(=O)NCCCc3ccccc3)nc(C)n12 1.93%
COC(=O)c1ccc(Cn2nnc3c(=O)[nH]c(C4CCCN(S(=O)(=O)c5cccc(Cl)c5)C4)nc32)cc1 (configuration not stated) -0.0411%
CCOc1ccc(-c2cc(-c3nc(-c4ccc(OC)c(OC)c4)no3)[nH]n2)cc1 -3.21%
Cc1ccccc1CSc1ncc(CO)n1Cc1ccc(F)cc1 1.4%
COc1ccc(Cc2nc3ccccc3n2Cc2ccccc2F)cc1 0.998%
CCN(C(=O)Cn1cnc2sc(C)c(S(=O)(=O)N3CCN(c4ncccn4)CC3)c2c1=O)c1ccccc1F -7.26%
COc1ccc(-c2cn3cccnc3n2)cc1NC(=O)c1cc(C)cc(C)c1 -4.51%
Cc1cc(Cl)ccc1OCC(=O)N(Cc1ccco1)Cc1ccco1 -4.87%
COc1ccc(-c2nnc(C3CCN(S(=O)(=O)c4ccc(C)c(C)c4)CC3)o2)cc1 5.97%
Cc1ccc(-n2ncc(C(=O)N3CCN(c4ccc(Cl)cc4)CC3)c2C2CCN(C(=O)OC(C)(C)C)CC2)c(C)c1 -0.0346%
CCOC(=O)c1ccc(NC(=O)c2ccc(=O)n(Cc3cccc(C)c3)c2)cc1 -16.6%
CC(O)CNc1nc2c(c(=O)n(Cc3ccc(Cl)cc3)c(=O)n2C)n1C (configuration not stated) -12.5%
COc1ccc(CCNC(=O)CCc2c(C)c3cc4c(C)coc4c(C)c3oc2=O)cc1OC -1.55%
Cc1cc2c(cc1S(=O)(=O)CCC(=O)NCCc1ccccc1)OCC(=O)N2 11.5%
CCC1CN(C(=O)Nc2ccc(C)c(F)c2)c2ccccc2S1 (configuration not stated) 0.614%
